Results on 1 substance are retold here after paper PMC11335204.

The chains behind the UniProt entries cited, without tags or fusion partners. Where a name states a change or a piece, a line headed by the entry shows the natural chain unless it says otherwise. A line that says so, or that is headed by a name, gives the form on record, which may keep a tag or linker. Residues count along the entry.
GST fused to the 2-340 INF2 fragment (Q27J81, residues 2-340): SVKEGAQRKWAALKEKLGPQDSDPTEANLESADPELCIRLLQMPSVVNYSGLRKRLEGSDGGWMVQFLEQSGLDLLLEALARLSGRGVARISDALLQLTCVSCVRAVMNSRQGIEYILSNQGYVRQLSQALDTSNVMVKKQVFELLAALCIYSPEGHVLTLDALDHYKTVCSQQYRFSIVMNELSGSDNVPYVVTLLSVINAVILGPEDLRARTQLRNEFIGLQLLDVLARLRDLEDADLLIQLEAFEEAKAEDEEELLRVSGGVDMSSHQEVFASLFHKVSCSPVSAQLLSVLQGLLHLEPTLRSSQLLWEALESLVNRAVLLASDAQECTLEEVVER
GST fused to the 2-21 INF2 fragment (Q27J81, residues 2-21): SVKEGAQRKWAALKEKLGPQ
GST fused to the 19-340 INF2 fragment (Q27J81, residues 19-340): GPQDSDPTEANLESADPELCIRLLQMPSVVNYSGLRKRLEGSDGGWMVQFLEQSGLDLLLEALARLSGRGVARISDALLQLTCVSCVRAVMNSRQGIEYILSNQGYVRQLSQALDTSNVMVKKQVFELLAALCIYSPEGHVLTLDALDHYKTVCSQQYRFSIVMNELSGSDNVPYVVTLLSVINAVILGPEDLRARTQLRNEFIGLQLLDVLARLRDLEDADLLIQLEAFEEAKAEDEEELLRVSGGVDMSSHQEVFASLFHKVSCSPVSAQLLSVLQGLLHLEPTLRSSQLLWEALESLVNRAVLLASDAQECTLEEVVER
GST fused to the 2-340 INF2 fragment with the triple W11L14L18A mutation (Q27J81, form named): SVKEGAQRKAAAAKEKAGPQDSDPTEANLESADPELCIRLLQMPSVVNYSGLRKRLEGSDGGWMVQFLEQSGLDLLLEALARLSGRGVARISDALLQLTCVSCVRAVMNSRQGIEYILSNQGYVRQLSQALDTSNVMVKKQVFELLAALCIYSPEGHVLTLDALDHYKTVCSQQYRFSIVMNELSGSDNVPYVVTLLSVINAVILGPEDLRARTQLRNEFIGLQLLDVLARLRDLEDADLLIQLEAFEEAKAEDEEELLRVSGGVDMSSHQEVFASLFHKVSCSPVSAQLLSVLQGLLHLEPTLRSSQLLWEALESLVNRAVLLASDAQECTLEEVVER
UniProt Q12798: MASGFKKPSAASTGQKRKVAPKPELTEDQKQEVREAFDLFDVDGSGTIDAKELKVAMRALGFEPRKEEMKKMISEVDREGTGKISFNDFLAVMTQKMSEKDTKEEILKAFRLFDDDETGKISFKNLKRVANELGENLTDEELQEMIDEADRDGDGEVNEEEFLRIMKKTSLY

Holding throughout (assay): pull-down; 30 µg GST-fused INF2 fragments immobilized on glutathione-Sepharose 4B beads, incubated 3 h at 4 °C with lysates of HEK293T cells expressing GFP fusions; 20 mM Tris-HCl pH 7.8, 150 mM NaCl, 1% Nonidet P-40, 1% glycerol, 5 mM CaCl2; immunoblotting; only the target purified
Assay [1] has as its target GST fused to the 2-21 INF2 fragment (human) (UniProt Q27J81).
Assay [2] addresses GST fused to the 19-340 INF2 fragment (human) (UniProt Q27J81).
In assay [3] the target is GST fused to the 2-340 INF2 fragment (human) (UniProt Q27J81).
The target in assay [4] is GST fused to the 2-340 INF2 fragment with the triple W11L14L18A mutation (human) (UniProt Q27J81).

No constants are given. Whether binding was seen depends on the method and setting. In cells and extracts the contact can be indirect. Some results given as binding are weak or reduced against the parent protein; the word gives no strength.

As for “GFP fused to centrin-1 (from UniProt Q12798 1-172)”, the binding result in assay [1] is “binds”; in assay [2], “no binding”; in assay [3], “binds”; in assay [4], “no binding”.
